# Laboratory results reported in the supplement of paper PMC3334620.
# The full ranking holds about 33,000 sequences; the median of “E-score (-0.5 to 0.5)” is about -0.013, and the highest 2% start at about 0.3. The list shows a part of the results.
# Target: T1, Msn1 (UniProt P22148)
# T1 sequence: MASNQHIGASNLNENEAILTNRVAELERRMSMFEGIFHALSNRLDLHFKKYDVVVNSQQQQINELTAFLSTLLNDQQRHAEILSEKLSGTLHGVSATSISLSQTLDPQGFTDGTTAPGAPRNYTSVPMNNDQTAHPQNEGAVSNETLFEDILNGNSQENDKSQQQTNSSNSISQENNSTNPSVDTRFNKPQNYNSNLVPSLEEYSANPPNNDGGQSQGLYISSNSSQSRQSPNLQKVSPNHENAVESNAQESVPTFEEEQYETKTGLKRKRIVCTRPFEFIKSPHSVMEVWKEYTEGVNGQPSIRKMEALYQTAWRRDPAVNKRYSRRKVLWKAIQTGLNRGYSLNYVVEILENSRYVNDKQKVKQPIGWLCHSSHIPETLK
# Experiment: PBM E-score (8-mer binding enrichment) (E-score (-0.5 to 0.5)); higher = stronger / more preferred TF binding; most listed sequences are background and not binding sites
# Conditions: protein concentration: 200 nM; construct: GST-full length
# Outline: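 Universal all-10-mer Agilent arrays, fresh or stripped once, were converted to double-stranded form by primer extension. GST-tagged yeast transcription factors from PURExpress in vitro transcription/translation, full-length or DNA-binding domain only, were applied at about 100-200 nM and detected with fluorescent anti-GST. After masliner normalisation, the Universal PBM Analysis Suite scored each ungapped eight-base word together with its reverse complement by E-score.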
row,Sequence,PBM E-score
1,GCTTTACC,-0.00166
2,CTGACAAG,0.161
3,GGAACCCC,-0.334
4,TAACTGGA,0.0495
5,GCCGTGCA,-0.0435
6,GGCCTACC,-0.159
7,ATGAGTAC,0.143
8,CCTAGGTC,-0.0456
9,CCTCGTAC,0.0851
10,AACTTTTA,0.0848
11,ATTGCCCC,-0.115
12,CCAGGCCC,-0.214
13,CCTACTAC,-0.075
14,ACATCACA,-0.00199
15,AACTACTA,0.265
16,GCGTCAGA,-0.0619
17,GCCGATTA,-0.0616
18,AGAAACAG,-0.0654
19,CAGAGTGG,0.0256
20,GATTACCA,-0.109
21,CATTAGGG,0.0376
22,AAAGTAGT,-0.0142
23,AGACGCCT,-0.191
24,ACGTAGTG,-0.0424
25,TCAATCGA,-0.00235

row,Sequence,PBM E-score
1,ATCCCAAA,0.177
2,AACAGGAC,0.164
3,AACCGCCG,-0.0276
4,AGACAATG,0.295
5,ACGATCGG,0.0315
6,CCTGAGAC,0.0271
7,CGCCGTTC,0.132
8,CATATATA,0.148
9,GAGCTACA,-0.197
10,AGGGACCC,-0.214
11,AGTAAAGC,0.00604
12,TCCTTTCA,-0.0192
13,AGGTGTCC,0.263
14,AAGAAAGT,0.166
15,ACTCTATA,0.0909
16,CATCGTAA,-0.0235
17,GGTCATCA,-0.0166
18,ACTCACGC,-0.0957
19,AAATGCGC,0.208
20,GTGCAATA,-0.0751
21,AACCGTTA,-0.0453
22,GACCCATA,-0.155
23,GATAATGA,0.2
24,CCACTACA,-0.133
25,CATTGCTA,0.138

row,Sequence,PBM E-score
1,CCTCTTAA,0.0412
2,AGGGAGAA,-0.259
3,CAACCAAA,0.209
4,ACAAGTAG,-0.0149
5,AACTCTAC,-0.169
6,CGTAAGTA,0.0282
7,AGATAAGC,-0.0908
8,CTCACATC,-0.0961
9,CCCAAAGG,-0.0925
10,AAGGTCTG,-0.071
11,ATTTCGCA,0.201
12,CCAATTCG,-0.0466
13,AGTAAGCC,-0.197
14,ATTGTGGG,0.107
15,GCAGTCCA,-0.0815
16,AGCGCGAT,-0.0183
17,GACCGCAC,-0.142
18,CTTATCGC,0.0123
19,TGGCACCA,-0.0529
20,ACGGTTCC,0.0872
21,ATGCGCCA,-0.0261
22,AGACGTTC,0.0892
23,ACCTAAAG,0.0937
24,CCAAACCG,-0.101
25,GTCAAGAC,0.067

row,Sequence,PBM E-score
1,GCTCCGAC,-0.0368
2,ATTCTGCA,0.0782
3,ATCTGGGC,-0.24
4,ATCGACTA,-0.122
5,CAAGATGA,-0.175
6,ACCCAAGG,-0.0287
7,TAACGGGA,-0.0643
8,TATCAGCA,0.138
9,CTGTAATC,0.00924
10,AGAGATCA,-0.119
11,ATCGAAAT,-0.151
12,ACGGAACT,0.068
13,CAAGTTCG,-0.0423
14,ACTCCGTA,-0.0523
15,AGACCAGC,-0.172
16,ATATGTAA,0.131
17,ATAATGGG,-0.0747
18,CAAGATAA,0.324
19,CGGACGAC,-0.0607
20,CTAAACTC,0.0416
21,TCATTACA,0.209
22,ATTACATA,-0.0111
23,AGATTACT,0.00355
24,CGGGCAGA,0.065
25,CACTCAAA,0.196

row,Sequence,PBM E-score
1,GAACAACA,-0.0172
2,AGAAGACG,0.118
3,CTTTCTAC,-0.079
4,CAGTGCGG,-0.0726
5,TGAATGAA,0.0496
6,CGACTTTA,0.201
7,ATATCAGC,-0.0193
8,GGGCAATA,-0.0349
9,AACGTGTA,-0.0696
10,AAAGACGG,-0.0787
11,GCGGTGTA,-0.00829
12,CTAGAAAG,0.0102
13,AGATACCT,-0.0491
14,CAGGTTCC,-0.265
15,AGCTCAGA,-0.147
16,ACTTGGCC,-0.125
17,GGTCTTAC,-0.0649
18,ACGCACCT,-0.208
19,AATATGGA,0.118
20,CACCCCGC,-0.0608
21,ATACAGCC,-0.0211
22,ATTGAGGC,-0.0229
23,CATGGTTC,0.087
24,CTTGTGAC,-0.0656
25,ATGGACCG,-0.16

row,Sequence,PBM E-score
1,CCATACCA,0.0887
2,CATCAATC,-0.122
3,AGTGTGTG,-0.125
4,GAGGAACC,-0.0449
5,AACTGGAA,0.00546
6,CGCCTTCA,-0.296
7,CCGCTTGC,-0.163
8,TGCTAGCA,-0.107
9,GCACACTA,-0.0794
10,CGCTTCTA,0.135
11,CCCGAAGG,-0.0932
12,GCGTTTAA,-0.00948
13,CCGCCTTC,-0.343
14,AAGTGCGA,-0.327
15,CCACTGTC,-0.167
16,AGTTAAAG,0.0697
17,ACCATCTG,-0.162
18,CCTTCCTA,-0.309
19,CCAGGAAA,-0.0478
20,AGAACGCG,0.086
21,CGCGCGAA,0.132
22,AAGCGAAA,0.00534
23,ACATTCCG,0.252
24,GACGGCGA,-0.144
25,AACGAAGT,-0.0723

row,Sequence,PBM E-score
1,CAGGGCTA,-0.166
2,CTCAGCAA,0.0422
3,AACACATG,0.07
4,AATTAAAG,0.167
5,AGTCTATA,0.0264
6,ACCGTGGC,-0.22
7,ATGATGAC,0.086
8,AATCAAAG,0.0578
9,ATCGTTGC,-0.138
10,ATTGAACG,-0.00389
11,CTGGTAAA,0.0379
12,ACGCTTTG,-0.0413
13,GCTATCCC,-0.0904
14,AGCGTAAG,-0.124
15,AAGCAAAT,0.111
16,ATCACGAG,-0.188
17,AGGACCAG,-0.141
18,CAGCCTAG,-0.107
19,CGCGGACG,0.181
20,GGCACAGA,-0.167
21,AGCCGCCT,-0.121
22,ACTCTGAT,-0.175
23,ACTGGCGC,-0.107
24,CCCTTCTA,-0.0353
25,GGTTGCCA,0.00561

row,Sequence,PBM E-score
1,GCAGCGAC,-0.11
2,ACAAGATA,0.189
3,CGCCAACG,-0.126
4,AGCCCCCG,-0.417
5,GGACGGAA,0.0587
6,AGCTAGGC,-0.0292
7,ACGTCCCA,0.0941
8,CATGTCGC,0.237
9,GGTACGGA,0.0921
10,AGGGTAGA,-0.229
11,ACTGCGAA,-0.198
12,ATGACTAC,-0.193
13,CTAAGCGA,-0.0865
14,GCTCCTAC,-0.23
15,GCGCAGCA,-0.29
16,CCAGTAAG,0.135
17,GGAAGGTA,-0.0362
18,GAGTAACC,-0.092
19,GAGGGGCA,-0.245
20,CTGTATGC,0.0129
21,GGGGGGAA,-0.389
22,GAAAGATC,-0.104
23,CAATGAGG,-0.283
24,AGTGCTAT,-0.0763
25,CAATAGGC,-0.0431

row,Sequence,PBM E-score
1,AAGGCGCA,-0.0267
2,CCAATGCA,-0.0756
3,AGAGAAAC,0.00425
4,AGAACCCC,-0.209
5,CTGGGGCA,-0.258
6,TAACGTCA,0.155
7,GTAAACGA,-0.148
8,GCGAGAAA,0.0329
9,AACCGGCC,-0.00471
10,GTGACTGA,0.0999
11,CCTGTTCG,-0.00437
12,AACTTCAT,0.144
13,GGGATTCA,0.0945
14,TGTATGAA,0.0909
15,CTCGTATA,-0.0671
16,CCACCTCG,-0.228
17,AAAAGTAA,0.25
18,ACTGCCTA,0.029
19,ACATCCAG,0.0584
